Assay results reported in the supplement of paper PMC10126150.
Values marked as one replicate rest on one cluster of the flow cell; about a third of the high ones do not repeat.

tested on: ATP; assay: switch fluorescence ratio, 500 uM ATP over buffer (Cy3 cluster intensity, sum of 5 cycles each) (fold (ratio)); higher = stronger signal-on switching upon ATP binding; sequences stand for … in TCGTCGGCAGCGTCAGATGTGTATAAGAGACAGTTTTTTTTTTTTTTTTTTTTTTTTT…TC; settings: aptamer strand: ATP DNA aptamer (quencher-CACCTGGGGGAGTATTGCGGAGGAAGG + anchor), 100 nM annealed; ATP concentration: 500 uM; one replicate
How it was run: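 Between each of five buffer/ATP cycles, the flow-cell was stripped with NaOH and re-annealed. Each cycle imaged Cy3-labelled switching-strand clusters, annealed to 100 nM quencher-labelled ATP aptamer on a modified Illumina MiSeq flow-cell, first in selection buffer and then after 15 min with 500 uM ATP at 22 °C. The fluorescence ratio is summed target-cycle over summed buffer-cycle Cy3 intensity per cluster, averaged per switch-domain sequence, with clusters outside 100-1000 RFU excluded.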
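Also: ATP exposure 15 min at 22 °C before imaging.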

Sequence	switch fluorescence ratio
TACGGGTCTT	1.01
TACGGTTAAC	1.08
TACGTACCAC	1.67
TACGTATCGA	1.09
TACGTCG	1.04
TACGTCGGTA	0.995
TACGTCTGCC	0.987
TACGTTCGGA	1.03
TACGTTGGAT	0.977
TACGTTTACC	1.24
TACTAAATCG	1.03
TACTAAGTCA	0.978
TACTAATGC	1.01
TACTACAATC	1.09
TACTAGGGGT	1.01
TACTATCGCC	1.11
TACTATTGA	1.02
TACTCAGAAA	1.27
TACTCAGTT	1.04
TACTCGATGG	0.987
TACTCGCGTA	1.1
TACTCGGGGG	1.21
TACTCGTGTA	1.02
TACTCTACCG	1.27
TACTCTTCA	1.08
TACTGAGATT	1.05

Sequence	switch fluorescence ratio
TACTGCGGGG	1.03
TACTGTAGTG	0.996
TACTGTCATT	1.09
TACTTACGAG	1.05
TACTTAGACG	1.08
TACTTAGCTC	1.01
TACTTAGGAC	1.04
TACTTCACCT	1.27
TACTTCGGTT	1.02
TACTTCGTAG	1
TACTTGGATG	0.959
TACTTTATGT	1.03
TACTTTGTCA	1.01
TACTTTTAG	0.887
TACTTTTGC	0.969
TACTTTTGTG	1
TACTTTTTG	0.977
TAGAACACAA	1.02
TAGAACATAT	1.02
TAGAAGAACA	1.04
TAGAAGAGAT	1.01
TAGAAGCAAG	1.06
TAGAAGCCAG	1.02
TAGAAGGATA	0.947
TAGAAGGTGT	1.08
TAGAAGTCCG	0.967

Sequence	switch fluorescence ratio
TAGAATAGAT	0.999
TAGAATAGTT	1.05
TAGACCAAGC	1.04
TAGACCGGTC	1.02
TAGACCTTGA	1.04
TAGACGAGGA	0.858
TAGACGCAAG	1.03
TAGACGCATA	2.77
TAGACTAAAT	1.07
TAGACTCATT	0.973
TAGAGACAGA	1.08
TAGAGAGCC	0.998
TAGAGATGC	1.06
TAGAGCACAG	1.05
TAGAGCAG	1.01
TAGAGCTCGG	0.979
TAGAGGCACT	1.01
TAGAGTTAAA	1.02
TAGATAAAGT	0.941
TAGATAACCC	0.963
TAGATATAGC	0.98
TAGATATATT	1.02
TAGATCAATA	0.987
TAGATGCGAA	0.995
TAGATTAGTC	0.981
TAGATTGTCC	1.05

Sequence	switch fluorescence ratio
TAGCACATG	1.02
TAGCACGG	0.985
TAGCACTGAA	1.04
TAGCACTTGG	0.993
TAGCCATAG	1.06
TAGCCCAGGA	1.02
TAGCCCCCAA	1.04
TAGCCCGCGT	1.04
TAGCCGACG	1.06
TAGCCGCCTA	1.05
TAGCCGTTGC	1
TAGCGACTTA	1.01
TAGCGAGTAC	1.2
TAGCGCAACT	1.14
TAGCGCACGA	1
TAGCGGACCA	1.04
TAGCGGTCTA	0.957
TAGCGTATAT	1.04
TAGCGTATGT	1.02
TAGCGTTAAA	1.03
TAGCTCCTGG	0.981
TAGCTGGAGC	1.1
TAGCTGTAGA	1.03
TAGCTGTATC	1.05
TAGCTTAGTG	1.01
TAGCTTAGTT	1.01

Sequence	switch fluorescence ratio
TAGCTTTATA	1.03
TAGCTTTGGC	0.97
TAGGAAACCC	1.03
TAGGAAATAA	1.04
TAGGAAG	1.01
TAGGAAGCCG	0.994
TAGGACCACT	1.05
TAGGAGCAGT	1
TAGGAGCCGA	1.05
TAGGAGTAGG	1.06
TAGGAGTCAA	0.999
TAGGATCCAG	0.959
TAGGATGAG	1.03
TAGGATGTCC	1.04
TAGGATGTTC	1.01
TAGGATTACG	0.982
TAGGATTGTT	1.01
TAGGCAGCTT	1.08
TAGGCCGTGT	0.84
TAGGCCTCGC	0.982
TAGGCGCTGA	1.05
TAGGCTTGCA	1.01
TAGGGCGCTG	0.986
TAGGGCTTGC	0.874
TAGGGGACCT	1.29
TAGGGGTAG	0.984

Sequence	switch fluorescence ratio
TAGGGTCAGT	0.988
TAGGGTGAAT	0.971
TAGGGTTCT	1.02
TAGGGTTTA	0.979
TAGGTAAAAC	1.02
TAGGTATGCT	0.962
TAGGTCATTT	0.986
TAGGTCCGCT	1.07
TAGGTCGGCG	1.03
TAGGTGCTCG	1.07
TAGGTGGTAG	1.01
TAGGTTGGCA	1
TAGGTTTGAG	1.01
TAGTAATGAT	1.03
TAGTACTGAA	1.02
TAGTAGACTA	1
TAGTAGGG	0.955
TAGTCAGCGC	0.989
TAGTCCTCGC	1.09
TAGTCCTGC	1.05
TAGTCGTAAA	1.04
TAGTGCACGA	1.03
TAGTGCTATT	0.972
TAGTGGAAA	1.01
TAGTGGAGG	1.04
TAGTGGAGGC	1.06

Sequence	switch fluorescence ratio
TAGTGGGTCA	1.02
TAGTGTGACA	1.01
TAGTTAAGTG	0.97
TAGTTACTCA	1.04
TAGTTAGTTA	0.991
TAGTTGAAAT	1.01
TATAAACATT	1.05
TATAAACGTT	0.98
TATAACCTGG	0.972
TATAAGATTG	1.03
TATAAGGTTC	0.97
TATAAGTCTG	1.05
TATAAGTTGC	1
TATAATCCAT	1
TATAATCTGG	0.965
TATAATCTTG	0.971
TATAATGCGG	1
TATACAGAGT	1.03
TATACAGGTC	0.988
TATACCACAC	1.4
TATACGGGG	1.05
TATACGTGTA	1.05
TATAGCAAAA	1.07
TATAGCAGCA	1.02
TATAGCCGAG	1.03
TATAGCTATA	0.974

Sequence	switch fluorescence ratio
TATAGCTGTG	0.997
TATAGGCGG	1.02
TATAGGGACG	1.12
TATAGGTTGT	1.06
TATAGTAATT	1
TATAGTAGT	0.99
TATATAAGGC	0.934
TATATAATAT	1
TATATAGCTT	1.09
TATATAGGAT	1.06
TATATCCGGG	0.975
TATATGGCTG	0.953
TATATGGTAT	1.06
TATATTATGT	1.01
TATATTCGGT	0.999
TATATTGAGC	1.01
TATATTTGAT	0.985
TATCAAAGAC	0.979
TATCAACAGA	1.07
